89 compounds from PMC4336329 (PLoS ONE, 2015) can be followed below.

The campaign covered roughly 310,000 compounds. About 2,200 (0.71%) showed an effect of 50% or more. The effect is printed as a negative number. Some of the results follow.

Chain of human ether-à-go-go-related gene (hERG) potassium channel (Q12809 whole entry, looked up): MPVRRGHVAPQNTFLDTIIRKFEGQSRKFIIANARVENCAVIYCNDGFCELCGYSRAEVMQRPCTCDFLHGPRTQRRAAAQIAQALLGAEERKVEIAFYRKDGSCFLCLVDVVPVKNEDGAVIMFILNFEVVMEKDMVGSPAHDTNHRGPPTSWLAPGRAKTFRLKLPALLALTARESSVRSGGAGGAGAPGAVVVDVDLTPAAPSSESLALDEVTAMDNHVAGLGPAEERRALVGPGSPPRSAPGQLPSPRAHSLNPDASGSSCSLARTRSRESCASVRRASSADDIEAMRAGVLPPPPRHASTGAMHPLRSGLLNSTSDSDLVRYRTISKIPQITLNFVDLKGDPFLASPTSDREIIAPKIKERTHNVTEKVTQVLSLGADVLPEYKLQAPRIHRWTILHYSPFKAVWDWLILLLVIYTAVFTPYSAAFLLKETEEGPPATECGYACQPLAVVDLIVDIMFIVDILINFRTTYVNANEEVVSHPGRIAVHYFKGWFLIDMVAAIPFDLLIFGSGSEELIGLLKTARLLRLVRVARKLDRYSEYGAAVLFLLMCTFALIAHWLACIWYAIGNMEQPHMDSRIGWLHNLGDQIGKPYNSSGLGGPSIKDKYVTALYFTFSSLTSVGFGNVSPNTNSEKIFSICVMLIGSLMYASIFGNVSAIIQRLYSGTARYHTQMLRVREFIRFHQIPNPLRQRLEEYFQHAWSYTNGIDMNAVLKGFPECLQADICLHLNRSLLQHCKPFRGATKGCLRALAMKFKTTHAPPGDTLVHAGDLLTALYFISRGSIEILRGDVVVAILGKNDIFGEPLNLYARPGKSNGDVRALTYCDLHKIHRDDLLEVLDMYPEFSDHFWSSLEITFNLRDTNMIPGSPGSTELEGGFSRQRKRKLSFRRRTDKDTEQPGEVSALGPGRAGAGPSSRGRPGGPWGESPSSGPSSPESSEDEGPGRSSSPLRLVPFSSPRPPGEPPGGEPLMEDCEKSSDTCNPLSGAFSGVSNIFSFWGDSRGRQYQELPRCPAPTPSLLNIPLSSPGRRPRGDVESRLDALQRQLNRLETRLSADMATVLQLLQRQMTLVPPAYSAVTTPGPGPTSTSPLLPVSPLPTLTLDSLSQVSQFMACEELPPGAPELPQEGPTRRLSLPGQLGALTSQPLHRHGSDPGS

The assay concerns the target human ether-à-go-go-related gene (hERG) potassium channel (human, UniProt Q12809). Put plainly: primary screen, population patch clamp on CHO cells stably expressing hERG.
In the case of `Cl.O=C(CN(CCO)c1ccccc1)NC12CC3CC(CC(C3)C1)C2`, the “hERG current change (%, negative = inhibition) at 1uM” value worked out at 2.99%. Turning to `C/C(=C\c1ccccc1)CN1CCN(c2ccccc2F)CC1`, the “hERG current change (%, negative = inhibition) at 1uM” value was 14%. Take `COc1cc(/C=C2\SC(=S)N(CCC(=O)Nc3ccc(O)cc3)C2=O)cc(OC)c1OC`: the “hERG current change (%, negative = inhibition) at 1uM” value was 10.5%.

Regarding `Cc1ccc(Cn2nc(C)c(NC(=O)C3(C)CC3(Br)Br)c2C)cc1` (centres unmarked), the “hERG current change (%, negative = inhibition) at 1uM” value was 7.98%. As to `CCCCc1nc(C(N)=O)c2[nH]c(=O)n(-c3ccc(OC)cc3OC)c2n1`, the “hERG current change (%, negative = inhibition) at 1uM” value is recorded as 5.55%. As to `O=C(CSc1nnnn1-c1ccc(F)cc1)Nc1ccc(N2CCOCC2)c(Cl)c1`, the “hERG current change (%, negative = inhibition) at 1uM” value was -12.5%. Then `CCOC(=O)c1ccccc1Oc1c(F)c(F)nc(NCCO)c1F`, with 10.5%; and `O=C1NC[C@H](CC2CCCCC2)N(CCc2cccc(F)c2)C1=O`, with 13.6%; and `Cn1c(=O)[nH]c2cc3ccccc3cc21`, with 7.75%. In the case of `Cc1cc(C)c2c(CN3CCN(C/C=C/c4ccccc4)CC3)cc(=O)oc2c1`, the “hERG current change (%, negative = inhibition) at 1uM” value is recorded as -41.5%.

For `CC(=NCCN1CCN(C(=S)Nc2ccccc2)CC1)C1=C(O)CC(C)(C)CC1=O`, the “hERG current change (%, negative = inhibition) at 1uM” value is recorded as -0.835%. Next, `CN(C)C=O.O=C(NCCc1ccccc1)c1oc2ccccc2c1COc1ccccc1`: 8.07%; `O=C(Nc1nc2c(Cl)cccc2s1)c1ccc([N+](=O)[O-])o1`: 19.4%.

Turning to `Cc1cc(S(=O)(=O)Nc2ccc(C(=O)NCC(c3ccco3)N3CCCCC3)cc2)ccc1F` (centres unmarked), the “hERG current change (%, negative = inhibition) at 1uM” value was found to be 10.5%. Then `CCOC(=O)c1c(C)n(CCOc2ccccc2)c2ccc(O)cc12`, with 20.2%.

`O=C(NCCN1CCOCC1)c1ccc(Cl)nc1`: the “hERG current change (%, negative = inhibition) at 1uM” value came to 15.6%.

Take `COc1ccc(C(=O)CSc2nnc(CNc3nc(-c4ccccc4)cs3)n2C)cc1`: the “hERG current change (%, negative = inhibition) at 1uM” value was 4.81%.

On to `COCCNC(=S)Nc1ccc2nsnc2c1`, for which the “hERG current change (%, negative = inhibition) at 1uM” value is reported as -1.43%. Then `COc1ccc(CN(C)C(=O)c2[nH]c(C)c(C(C)=O)c2C)c(OC)c1OC`, with 5.68%; and `Oc1ccc(Cl)cc1C(C#Cc1ccccc1)N1CCOCC1` (centres unmarked), with 1.2%; and `O=C(NCC1CCCO1)c1cccc(N2C(=O)C3C4C=CC(C4)C3C2=O)c1` (centres unmarked), with 6.71%. With `Cc1ccccc1OCC(=O)NNC(=O)C1CC(=O)N(c2ccc3c(c2)OCCO3)C1` (centres unmarked), the “hERG current change (%, negative = inhibition) at 1uM” value was 4.16%. For the compound `CCCCNC(=O)c1ccc2c(SCC(=O)O)c3c(nc2c1)CCCC3`, the “hERG current change (%, negative = inhibition) at 1uM” value was determined as 5.78%.

Turning to `COc1ccc(-c2cn3cccnc3n2)cc1NC(=O)C1CCCC1`, the “hERG current change (%, negative = inhibition) at 1uM” value was determined as 1.4%. Next, `COC(=O)[C@H](Cc1ccccc1)NC(=O)NCc1ccc(S(N)(=O)=O)cc1`: 17.4%; `Cn1ncc2c(NNC(=O)c3ccc(Cl)cc3Cl)ncnc21`: 14.7%. On to `CC(=O)C(=Nc1ccc(Cl)cc1Cl)NNc1cccc(Cl)c1`, for which the “hERG current change (%, negative = inhibition) at 1uM” value worked out at 12.3%. Next, `COc1ccc(Nc2ncccc2C(=O)NCc2ccccc2)cc1`: 8.04%. Next, `CN(CC(=O)Nc1c(Cl)cccc1Cl)C(=O)Cn1[nH]c(=O)c2ccccc2c1=O`: 1.64%; `Cc1ccc(CNC(=O)C2CC=CCC2C(=O)O)cc1` (centres unmarked): 13.2%; `Cc1nc2c(C)cccn2c1/C(O)=C1\C(=O)C(=O)N(CCN(C)C)C1c1ccncc1` (centres unmarked): 10.1%. Next, `CC(CCc1ccccc1)NC(=O)CSc1ccccn1` (centres unmarked): 3.49%; `COc1cc(CN2CCN(c3cccc(C)c3C)CC2)cc(OC)c1O`: -20.4%. Consider `O=C(CC1(CC(=O)N2CCOCC2)CCCC1)Nc1ccccc1`, for which the “hERG current change (%, negative = inhibition) at 1uM” value was 9.08%. On to `COc1cc(CNn2cnnc2)ccc1OCC(=O)NC1CCCCC1`, for which the “hERG current change (%, negative = inhibition) at 1uM” value amounted to 5.25%. Regarding `Cc1nnc(NC(=O)c2ccccc2NC(=O)c2ccccc2)s1`, the “hERG current change (%, negative = inhibition) at 1uM” value was found to be 0.378%.

`COc1ccc(NC(=O)CSc2cn[nH]n2)c(OC)c1`: the “hERG current change (%, negative = inhibition) at 1uM” value was determined as 12.7%. Then `CCN(C(=O)CSc1nnc(-c2c[nH]c3ccccc23)o1)C1CCS(=O)(=O)C1` (centres unmarked), with 5.54%; and `CCOc1ccccc1OCCCNCc1ccccc1.O=C(O)C(=O)O`, with 7.63%; and `Cc1ccc(CS(=O)(=O)CCC(=O)NCc2ccc3c(c2)OCO3)cc1`, with 7.4%. Take `Cc1ccc(-c2nc(SC(C)C(=O)N3CCOCC3)n[nH]2)cc1` (centres unmarked): the “hERG current change (%, negative = inhibition) at 1uM” value was found to be 9.18%. Next, `COc1ccc(CCN(C)C(=O)/C=C/c2c(Cl)nc3ccccn23)cc1OC`: 17.9%; `O=C(O)C(=O)O.O=S(=O)(c1ccc(Cl)c(C(F)(F)F)c1)N1CCN(CC(O)COCC2CCCO2)CC1` (centres unmarked): -0.996%; `CC1(C)[C@@H](O)CC[C@]2(C)C3C(O)C=C4[C@H]5C[C@@](C)(C(=O)O)CC[C@]5(C)CC[C@]4(C)[C@]3(C)CC[C@@H]12` (some centres unmarked): 12.7%.

With `Cc1nc2nc(-c3ccccc3)cn2nc1C`, the “hERG current change (%, negative = inhibition) at 1uM” value turned out to be 7.2%. Next, `O=C(NCCN1CCOCC1)c1c(O)nc2ccccn2c1=O`: 9.31%; `COC(=O)C1=C(C)N(C)C(=S)NC1c1ccc(Cl)cc1` (centres unmarked): 8.24%.

In the case of `O=c1[nH][nH]c(-c2ccccc2O)c1C(C[N+](=O)[O-])c1ccc(Cl)cc1Cl` (centres unmarked), the “hERG current change (%, negative = inhibition) at 1uM” value turned out to be 12.9%. Then `COc1ccc(NC(=O)c2sc3nc(N4CCOCC4)c4c(c3c2N)CC(C(C)C)OC4)c(OC)c1` (centres unmarked), with 15.2%; and `O=C([O-])CSc1nc2c(c(C(F)(F)F)n1)CCCC2.[Na+]`, with 13.8%; and `O=C(Oc1ccc(/C=N/O)cc1)c1ccccc1Cl`, with 9.77%. Then `O=C(Cc1ccc([N+](=O)[O-])cc1)N1N=C(c2ccncc2)CC1(O)C(F)(F)F` (centres unmarked), with 9.79%. Next, `CN1C(=O)C(Cc2cccc3ccccc23)C(=O)N(C)C1=O`: 9.31%; `O=C(c1ccccc1)N1CCN(CCc2ccccc2)CC1`: -5.25%. As for `C=CCOc1c(Br)cc(CNn2cn[nH]c2=S)cc1OC`, the “hERG current change (%, negative = inhibition) at 1uM” value was -1.26%.

Take `Cc1nnc(NC(=O)CSc2nnc(CNC(=O)c3ccccc3)n2-c2ccccc2)s1`: the “hERG current change (%, negative = inhibition) at 1uM” value is listed as 9.59%. Then `CCCN(CCC)CCNS(=O)(=O)c1ccc2c(c1)oc(=O)n2C`, with 17.9%; and `S=c1nc(-c2ccc(Br)cc2)[nH]c2ccccc12`, with 12.7%. Then `COc1cc(C[C@@H](C)N)c(OC)cc1I.Cl`, with 1.41%; and `CCn1c(=O)c(=O)[nH]c2cc(C(=O)NC3CCCC3)ccc21`, with 16.3%; and `O=S(=O)(Nc1ccc2oc(-c3ccccc3)nc2c1)c1ccccc1`, with -4.08%. Next, `COc1ccc(-c2c(C)nn3c(N4CCC(C(=O)N5CCCCC5)CC4)cc(C)nc23)cc1OC`: 11.5%.

`CC1CCC(NC(=O)COC(=O)CCC(=O)c2ccc(Cl)s2)CC1` (centres unmarked): the “hERG current change (%, negative = inhibition) at 1uM” value is listed as 15.4%. Next, `CC1(C)CC(N2CCCC2)=CC(=[N+]2CCCCCC2)C1.[I-]`: 7.55%; `O=C(Nc1c(F)cc(F)cc1Br)c1cc(-c2ccco2)on1`: 5.89%; `O=C(NCCCN1CCOCC1)c1ccccc1.O=C(O)C(=O)O`: 18%.

With `O=C(CNc1cccc(S(=O)(=O)N2CCOCC2)c1)Nc1cccc(Br)c1`, the “hERG current change (%, negative = inhibition) at 1uM” value was -2.34%. Turning to `Cc1nnc(NC(=O)c2ccc(C)c(S(=O)(=O)N3CCOCC3)c2)s1`, the “hERG current change (%, negative = inhibition) at 1uM” value was determined as 11.7%. Next, `COc1ccc(Cl)cc1NC(=S)N1CCCC1`: 10.1%; `COc1ccc(NC(=O)CN2C(=O)NC(c3ccccc3)(c3ccccc3)C2=O)cc1OC`: 3.77%. Then `NC(=O)[C@@H]1CCCN1Cc1c(C(=O)N2CCN(C3CCCCC3)CC2)nc2ccccn12`, with 11%; and `Cc1cc(C)c(S(=O)(=O)NCc2cccnc2)c(C)c1`, with 6.49%. Then `CCOc1ccc(/C(O)=C2/C(=O)C(=O)N(CC3CCCO3)C2c2ccco2)cc1` (centres unmarked), with 14.8%.

As for `Cc1cc(NC(=O)CCC(=O)N(CC(=O)NC2CCCC2)c2ccc(F)cc2)no1`, the “hERG current change (%, negative = inhibition) at 1uM” value was 6.11%. Next, `COC(=O)CCCNC(=O)CN1CC(c2ccccc2)CC1=O` (centres unmarked): 4.06%; `COCCNC(=O)c1cc(OC)c(OC)cc1[N+](=O)[O-]`: 10.4%. Next, `CCCN(CCC)Cc1c(C(=O)N/N=C/c2ccc(Br)cc2)nnn1-c1nonc1N`: 8.16%. In the case of `COc1ccc(CCN(C)C(=O)CN2C(=O)NC3(CCCCC3C)C2=O)cc1OC` (centres unmarked), the “hERG current change (%, negative = inhibition) at 1uM” value is recorded as 17.5%. Then `CCOc1ccc(NC(=O)c2c(C)nn(Cc3ccccc3)c2Cl)cc1`, with 11%; and `O=C1COc2ccc(C(=O)COC(=O)CNC(=O)c3ccco3)cc2N1`, with -2.94%. Take `O=C(Cc1ccc(F)cc1)Nc1ccc(S(=O)(=O)N2CCCC2)cc1`: the “hERG current change (%, negative = inhibition) at 1uM” value is 16.3%. Next, `CCCCCN1C=CC=C/C1=C\C=C(C#N)C#N`: -28.2%; `CC(C)(C)CC(=O)NCc1cccs1`: -1.18%; `COc1ccccc1OCC(=O)NCc1cccs1`: 21.2%. Then `Cn1c(=O)oc2cc(S(=O)(=O)N3CCN(c4cccc(Cl)c4)CC3)ccc21`, with 9.55%. Then `COc1cc(Cl)cc(C2NC(=O)NC(C)=C2C(=O)NCc2ccccc2)c1O` (centres unmarked), with 4.02%; and `COc1ccc(S(=O)(=O)N2CCOc3ccccc32)cc1`, with 14.8%; and `COC(=O)CSc1nc(C)cc(C)c1C#N`, with 20.4%. With `O=C(Nc1nc(-c2ccc3c(c2)OCO3)cs1)C1COc2ccccc2O1` (centres unmarked), the “hERG current change (%, negative = inhibition) at 1uM” value is recorded as 11.6%.
